Test results published in PubChem BioAssay (NCI).
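Five concentrations, 48 hours, 96-well plates. TGI: total growth inhibition.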

Columns and labels:
Assay in all cases: inhibition of tumour cell growth, NCI panel, 48 h
786-0 renal = system: 786-0 renal
A498 renal = system: A498 renal
A549 NSCLC = system: A549 NSCLC
ACHN renal = system: ACHN renal
BT-549 breast = system: BT-549 breast
CAKI-1 renal = system: CAKI-1 renal
CCRF-CEM leukemia = system: CCRF-CEM leukemia
COLO 205 colon = system: COLO 205 colon
DU-145 prostate = system: DU-145 prostate
EKVX NSCLC = system: EKVX NSCLC
HCC-2998 colon = system: HCC-2998 colon
HCT-116 colon = system: HCT-116 colon
HCT-15 colon = system: HCT-15 colon
HL-60(TB) leukemia = system: HL-60(TB) leukemia
HOP-62 NSCLC = system: HOP-62 NSCLC
HOP-92 NSCLC = system: HOP-92 NSCLC
HS 578T breast = system: HS 578T breast
IGROV1 ovarian = system: IGROV1 ovarian
K-562 leukemia = system: K-562 leukemia
KM12 colon = system: KM12 colon
LOX IMVI melanoma = system: LOX IMVI melanoma
M14 melanoma = system: M14 melanoma
MALME-3M melanoma = system: MALME-3M melanoma
MCF7 breast = system: MCF7 breast
MDA-MB-231 breast = system: MDA-MB-231 breast
MDA-MB-435 = system: MDA-MB-435
MDA-N = system: MDA-N
MOLT-4 leukemia = system: MOLT-4 leukemia
NCI-H23 lung = system: NCI-H23 lung
NCI-H460 lung = system: NCI-H460 lung
NCI-H522 lung = system: NCI-H522 lung
NCI/ADR-RES ovarian = system: NCI/ADR-RES ovarian
OVCAR-3 ovarian = system: OVCAR-3 ovarian
OVCAR-4 ovarian = system: OVCAR-4 ovarian
OVCAR-5 ovarian = system: OVCAR-5 ovarian
OVCAR-8 ovarian = system: OVCAR-8 ovarian
PC-3 prostate = system: PC-3 prostate
RPMI-8226 leukemia = system: RPMI-8226 leukemia
RXF 393 renal = system: RXF 393 renal
SF-268 CNS = system: SF-268 CNS
SF-295 CNS = system: SF-295 CNS
SK-MEL-2 melanoma = system: SK-MEL-2 melanoma
SK-MEL-28 melanoma = system: SK-MEL-28 melanoma
SK-MEL-5 melanoma = system: SK-MEL-5 melanoma
SK-OV-3 ovarian = system: SK-OV-3 ovarian
SN12C renal = system: SN12C renal
SNB-19 CNS = system: SNB-19 CNS
SNB-75 CNS = system: SNB-75 CNS
SR leukemia = system: SR leukemia
SW-620 colon = system: SW-620 colon
T-47D breast = system: T-47D breast
TK-10 renal = system: TK-10 renal
U251 CNS = system: U251 CNS
UACC-257 melanoma = system: UACC-257 melanoma
UACC-62 melanoma = system: UACC-62 melanoma
UO-31 renal = system: UO-31 renal

O=C1Cc2c([nH]c3cc(Cl)cc(Cl)c23)-c2ccccc2N1
TGI (786-0 renal): > 100 µM
TGI (A498 renal): > 100 µM
TGI (A549 NSCLC): > 100 µM
TGI (ACHN renal): > 100 µM
TGI (BT-549 breast): > 100 µM
TGI (CAKI-1 renal): > 100 µM
TGI (CCRF-CEM leukemia): > 100 µM
TGI (COLO 205 colon): > 100 µM
TGI (DU-145 prostate): > 100 µM
TGI (EKVX NSCLC): > 100 µM
TGI (HCC-2998 colon): > 100 µM
TGI (HCT-116 colon): > 100 µM
TGI (HCT-15 colon): > 100 µM
TGI (HL-60(TB) leukemia): 98.5 µM
TGI (HOP-62 NSCLC): > 100 µM
TGI (HOP-92 NSCLC): > 100 µM
TGI (HS 578T breast): > 100 µM
TGI (IGROV1 ovarian): > 100 µM
TGI (K-562 leukemia): > 100 µM
TGI (KM12 colon): > 100 µM
TGI (LOX IMVI melanoma): > 100 µM
TGI (M14 melanoma): > 100 µM
TGI (MALME-3M melanoma): > 100 µM
TGI (MCF7 breast): > 100 µM
TGI (MDA-MB-231 breast): > 100 µM
TGI (MDA-MB-435): > 100 µM
TGI (MDA-N): > 100 µM
TGI (MOLT-4 leukemia): > 100 µM
TGI (NCI-H23 lung): > 100 µM
TGI (NCI-H460 lung): > 100 µM
TGI (NCI-H522 lung): > 100 µM
TGI (NCI/ADR-RES ovarian): > 100 µM
TGI (OVCAR-3 ovarian): > 100 µM
TGI (OVCAR-4 ovarian): > 100 µM
TGI (OVCAR-5 ovarian): > 100 µM
TGI (OVCAR-8 ovarian): > 100 µM
TGI (PC-3 prostate): > 100 µM
TGI (RPMI-8226 leukemia): > 100 µM
TGI (RXF 393 renal): > 100 µM
TGI (SF-268 CNS): > 100 µM
TGI (SF-295 CNS): > 100 µM
TGI (SK-MEL-2 melanoma): > 100 µM
TGI (SK-MEL-28 melanoma): > 100 µM
TGI (SK-MEL-5 melanoma): > 100 µM
TGI (SK-OV-3 ovarian): > 100 µM
TGI (SN12C renal): > 100 µM
TGI (SNB-19 CNS): > 100 µM
TGI (SNB-75 CNS): > 100 µM
TGI (SR leukemia): > 100 µM
TGI (SW-620 colon): > 100 µM
TGI (T-47D breast): > 100 µM
TGI (TK-10 renal): > 100 µM
TGI (U251 CNS): > 100 µM
TGI (UACC-257 melanoma): > 100 µM
TGI (UACC-62 melanoma): > 100 µM
TGI (UO-31 renal): > 100 µM
